# The list shows a part of the results. The energies were worked out here from pooled read counts, against the library average; single values are noisy.
# Biological target: T1, Pho4 (S. cerevisiae) (UniProt P07270)
# T1 sequence: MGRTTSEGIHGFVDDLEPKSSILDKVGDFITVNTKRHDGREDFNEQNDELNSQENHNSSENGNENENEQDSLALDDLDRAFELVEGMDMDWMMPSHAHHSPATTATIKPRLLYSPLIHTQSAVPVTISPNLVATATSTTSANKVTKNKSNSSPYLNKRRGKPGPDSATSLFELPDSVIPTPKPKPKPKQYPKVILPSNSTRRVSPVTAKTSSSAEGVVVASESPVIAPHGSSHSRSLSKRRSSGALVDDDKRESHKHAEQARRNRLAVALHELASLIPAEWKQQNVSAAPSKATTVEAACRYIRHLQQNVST
# Test: relative binding free energy (BET-seq); higher = weaker binding
# Conditions: reference: library average
row,Sequence,relative binding free energy
1,ATTTACACGTGCGATG,0.15 kcal/mol
2,GCGTGCACGTGCGATG,0.1 kcal/mol
3,GTTAACACGTGGGGGT,-0.07 kcal/mol
4,ATTAGCACGTGTGGTC,0.07 kcal/mol
5,ATAATCACGTGTGGTG,0.1 kcal/mol
6,ACATGCACGTGTGTGA,0 kcal/mol
7,TTGTCCACGTGTTCGT,0 kcal/mol
8,TTCCTCACGTGTGGGG,0.26 kcal/mol
9,TGGAACACGTGGCGTG,-0.1 kcal/mol
10,TATTGCACGTGAATAT,0.15 kcal/mol
11,GTTTACACGTGACTTG,0.22 kcal/mol
12,GGGAGCACGTGTTATG,-0.12 kcal/mol
13,GTGGGCACGTGCTGTC,-0.08 kcal/mol
14,GTGAACACGTGTGGTT,0.15 kcal/mol
15,TATTACACGTGTAGTC,0.18 kcal/mol
16,GTACGCACGTGGTGGC,-0.05 kcal/mol
17,TAGATCACGTGGTGTG,0.06 kcal/mol
18,TAGTACACGTGAGGGG,0.31 kcal/mol
19,TAGATCACGTGGGGAT,0.08 kcal/mol
20,ACTTTCACGTGTGAGT,0.26 kcal/mol
21,CTGGGCACGTGTGCGG,-0.19 kcal/mol
22,GTAAACACGTGAGGGC,0.32 kcal/mol
23,GGGAACACGTGAGGGA,0.37 kcal/mol
24,TTCGTCACGTGGTGGC,0.19 kcal/mol
25,GGTTTCACGTGGACGA,0.35 kcal/mol
26,TAAGGCACGTGGAATG,0.02 kcal/mol

row,Sequence,relative binding free energy
1,GGTAACACGTGTGAGA,0.1 kcal/mol
2,GATAGCACGTGTTCTT,0.09 kcal/mol
3,TATATCACGTGTATGT,0.14 kcal/mol
4,TAGAACACGTGTTTAA,0.12 kcal/mol
5,GTCGGCACGTGAGGTT,0.19 kcal/mol
6,GAGTGCACGTGGTCTT,0.09 kcal/mol
7,TTTTGCACGTGGCGCT,-0.15 kcal/mol
8,AAAGGCACGTGTTGGC,-0.11 kcal/mol
9,GAACTCACGTGGGGGT,0.08 kcal/mol
10,CGTAGCACGTGGCATG,-0.19 kcal/mol
11,ATATTCACGTGTCGTT,0.18 kcal/mol
12,AGTTACACGTGCGAGT,0.13 kcal/mol
13,TGGGTCACGTGCTGCG,0.05 kcal/mol
14,GGATTCACGTGTGAAT,0.3 kcal/mol
15,TCGGTCACGTGAGCTG,0.31 kcal/mol
16,TCATTCACGTGTTGAG,0.35 kcal/mol
17,GTTGGCACGTGATGAG,0.06 kcal/mol
18,TGGACCACGTGTAGTG,0.03 kcal/mol
19,TTTAACACGTGGATTA,-0.03 kcal/mol
20,GCTGGCACGTGGCGTT,-0.16 kcal/mol
21,AGGGCCACGTGGGGTC,-0.25 kcal/mol
22,TGAAGCACGTGTTATG,-0.21 kcal/mol
23,AGGGGCACGTGGGGGT,-0.19 kcal/mol
24,GGATGCACGTGATAGG,0.07 kcal/mol
25,GTGTGCACGTGTTAGT,0.08 kcal/mol
26,TATCGCACGTGGTTTT,-0.13 kcal/mol

row,Sequence,relative binding free energy
1,GATCTCACGTGAGGGG,0.29 kcal/mol
2,GGCCGCACGTGGATGG,0.06 kcal/mol
3,GTTGTCACGTGACGAG,0.18 kcal/mol
4,TGGCGCACGTGAGGAT,0.08 kcal/mol
5,TTGTTCACGTGGGAAC,0.35 kcal/mol
6,CTGTTCACGTGTTATG,0.32 kcal/mol
7,TCGGTCACGTGCTTGT,0.03 kcal/mol
8,AGAGTCACGTGATATG,0.08 kcal/mol
9,TTGGGCACGTGTGGTG,-0.02 kcal/mol
10,TGATGCACGTGATTGA,0.1 kcal/mol
11,CAGGGCACGTGTAGTG,-0.05 kcal/mol
12,GTCGTCACGTGGCTTT,0.05 kcal/mol
13,TTGGTCACGTGTACCG,0.15 kcal/mol
14,TGGGTCACGTGCGTGA,-0.04 kcal/mol
15,CTCATCACGTGTGGGG,0.15 kcal/mol
16,CATAGCACGTGAGGTG,0.23 kcal/mol
17,ATAGTCACGTGGTGCA,-0.04 kcal/mol
18,TACAGCACGTGATGGT,0.05 kcal/mol
19,CTAATCACGTGGCGGG,0.21 kcal/mol
20,CAACGCACGTGGTGTG,-0.06 kcal/mol
21,CGTGGCACGTGATGAT,-0.14 kcal/mol
22,GGGTACACGTGTGGTT,0.18 kcal/mol
23,TGTTACACGTGGCTCG,0.04 kcal/mol
24,GGAAACACGTGTGTGC,0.07 kcal/mol
25,TGAGGCACGTGATGGA,0.02 kcal/mol
26,GTTGACACGTGAGTTC,0.3 kcal/mol

row,Sequence,relative binding free energy
1,GCGTACACGTGGTGAT,0.03 kcal/mol
2,ATAGTCACGTGTATAT,0.14 kcal/mol
3,TTGTACACGTGTGGCC,0.14 kcal/mol
4,TGGTGCACGTGGATTA,0.08 kcal/mol
5,ATGTGCACGTGAAAGG,0.03 kcal/mol
6,GTTAACACGTGGTTTT,0.1 kcal/mol
7,TTTAACACGTGTATAT,-0.02 kcal/mol
8,TGTTGCACGTGTTTCT,0.11 kcal/mol
9,GAGTGCACGTGTTTTT,0.03 kcal/mol
10,TGGCACACGTGTAGAG,0.08 kcal/mol
11,GAGTGCACGTGGTTAG,0 kcal/mol
12,AGATTCACGTGGTGTG,0.2 kcal/mol
13,TGTGGCACGTGACTGT,0.02 kcal/mol
14,ATAGACACGTGGTTTG,-0.02 kcal/mol
15,CTCGGCACGTGTGTGG,-0.05 kcal/mol
16,TGGTACACGTGGAAGA,0.2 kcal/mol
17,TGTCTCACGTGGGGAG,0.08 kcal/mol
18,GAATTCACGTGCTGTG,0.45 kcal/mol
19,TGGTGCACGTGAGCTC,0.32 kcal/mol
20,GGGTTCACGTGTGCGC,0.27 kcal/mol
21,TGTTGCACGTGCCTAG,-0.08 kcal/mol
22,GAAAGCACGTGGTTGG,-0.01 kcal/mol
23,GTGTACACGTGAGTAG,0.26 kcal/mol
24,TGTTTCACGTGCTTGT,0.3 kcal/mol
25,CTATTCACGTGGTGGT,0.05 kcal/mol
26,TGCAGCACGTGTATTG,-0.03 kcal/mol

row,Sequence,relative binding free energy
1,ATGGGCACGTGCGGTG,-0.19 kcal/mol
2,TTGTTCACGTGCGGAA,0.22 kcal/mol
3,GGTTCCACGTGGAGAT,0.16 kcal/mol
4,ACAGGCACGTGAGGGC,0.27 kcal/mol
5,GTATTCACGTGTTGTA,0.29 kcal/mol
6,GGACGCACGTGGGTAG,-0.18 kcal/mol
7,TGTGGCACGTGTTTAG,-0.06 kcal/mol
8,AGGGCCACGTGGTTCA,0.02 kcal/mol
9,TAGACCACGTGTTTTG,0.09 kcal/mol
10,GGGACCACGTGCGGTG,-0.08 kcal/mol
11,CCTGGCACGTGTTGTA,-0.09 kcal/mol
12,GTAGGCACGTGGTGAA,-0.09 kcal/mol
13,ATGCGCACGTGTAGGT,-0.06 kcal/mol
14,GTGTGCACGTGTGCAG,0 kcal/mol
15,TGTATCACGTGAGGAA,0.29 kcal/mol
16,AATTACACGTGAGGGA,0.35 kcal/mol
17,AGGGGCACGTGTTGGG,0 kcal/mol
18,TTTATCACGTGTGCTA,0.07 kcal/mol
19,TGAGGCACGTGATTGG,0 kcal/mol
20,GTGAGCACGTGTTCGG,-0.08 kcal/mol
21,TACTTCACGTGGGTTG,0.15 kcal/mol
22,TATGGCACGTGGCTGT,-0.15 kcal/mol
23,ATGGACACGTGAGCGG,-0.02 kcal/mol
24,GGCTGCACGTGGTACG,0.06 kcal/mol
25,AGGGTCACGTGACGGG,0.17 kcal/mol
26,CAGTGCACGTGGGGCC,-0.12 kcal/mol

row,Sequence,relative binding free energy
1,AGTTCCACGTGAGGTG,0.14 kcal/mol
2,TGTAGCACGTGCGGAG,-0.11 kcal/mol
3,TGCATCACGTGTTTAT,0.25 kcal/mol
4,GTTGTCACGTGGTCAT,0.14 kcal/mol
5,TGGGTCACGTGGTGCC,-0.02 kcal/mol
6,GGGATCACGTGTTCGA,0.35 kcal/mol
7,TTCGTCACGTGCAGTG,0.07 kcal/mol
8,TGGGTCACGTGATCGC,0.2 kcal/mol
9,TTTTTCACGTGGTTTC,0.25 kcal/mol
10,AGCATCACGTGAGGGG,0.14 kcal/mol
11,ATTTGCACGTGAGCTA,0.2 kcal/mol
12,ATTGTCACGTGATGAT,0.27 kcal/mol
13,TGGGGCACGTGATCTG,-0.07 kcal/mol
14,CCAGTCACGTGTGGTT,0.13 kcal/mol
15,GAGGACACGTGTGAGG,0.24 kcal/mol
16,TGGGACACGTGTTAAC,0.12 kcal/mol
17,TTAATCACGTGGGTGG,0.03 kcal/mol
18,GGGGCCACGTGGAGGT,-0.18 kcal/mol
19,TGGGACACGTGTACGA,0.05 kcal/mol
20,TGATTCACGTGTTAAT,0.33 kcal/mol
21,ATTGACACGTGAGAGT,0.25 kcal/mol
22,CCAGGCACGTGGTTTT,0 kcal/mol
23,TGTTGCACGTGCGCAG,-0.2 kcal/mol
24,TTTGACACGTGAATGC,0.24 kcal/mol
25,TGGCACACGTGTGGAA,0.03 kcal/mol
26,TGGAGCACGTGATCGG,-0.01 kcal/mol

row,Sequence,relative binding free energy
1,GTTGCCACGTGGGAGG,-0.05 kcal/mol
2,TGGATCACGTGTGATA,0.16 kcal/mol
3,TTTTGCACGTGTAGGA,0.18 kcal/mol
4,ATCGTCACGTGAGTTT,0.4 kcal/mol
5,CGTAGCACGTGAGTGT,-0.04 kcal/mol
6,AATTACACGTGCTTGT,0.12 kcal/mol
7,GCTGTCACGTGTCAGG,0.2 kcal/mol
8,ATGCTCACGTGGTGCT,0.11 kcal/mol
9,TAGCTCACGTGCGGTT,0.31 kcal/mol
10,TTGGCCACGTGAGTTA,0.17 kcal/mol
11,TAGGGCACGTGTTGAC,-0.01 kcal/mol
12,ATGTTCACGTGCGTGG,0.09 kcal/mol
13,GACTGCACGTGTTTTT,0.18 kcal/mol
14,TTTACCACGTGATGTG,-0.03 kcal/mol
15,GATGGCACGTGTTTTG,0.03 kcal/mol
16,GGGATCACGTGCGTTT,0.15 kcal/mol
17,ATCGGCACGTGGTGGC,-0.08 kcal/mol
18,ATTCACACGTGTTGGG,0.07 kcal/mol
19,GAGGCCACGTGGTGAT,-0.02 kcal/mol
20,GTAGACACGTGTGTAT,-0.07 kcal/mol
21,GGCTTCACGTGGGGCG,0.17 kcal/mol
22,CTAGTCACGTGTGGGC,0.15 kcal/mol
23,TAGATCACGTGGGTGT,0.09 kcal/mol
24,TCTGGCACGTGTTAGT,-0.08 kcal/mol
25,AGAAGCACGTGTGGTG,-0.11 kcal/mol
26,ATTATCACGTGTTGAC,0.25 kcal/mol

row,Sequence,relative binding free energy
1,AAATTCACGTGTCAGG,0.38 kcal/mol
2,TGTTACACGTGTGGCC,0.2 kcal/mol
3,GTACGCACGTGGGCGA,-0.12 kcal/mol
4,TCGGGCACGTGCAGGG,-0.22 kcal/mol
5,TTGATCACGTGTATGT,0.21 kcal/mol
6,TCGATCACGTGTGGTT,0.16 kcal/mol
7,ATGGACACGTGGTGCG,-0.16 kcal/mol
8,GAGGGCACGTGAGTGT,0.19 kcal/mol
9,ATTACCACGTGGTTGG,-0.18 kcal/mol
10,TTATACACGTGTTGTA,0.01 kcal/mol
11,TCTTGCACGTGGAGTT,0.17 kcal/mol
12,GCATTCACGTGTGGTT,0.23 kcal/mol
13,GGCAACACGTGTGTTT,0.13 kcal/mol
14,TCACGCACGTGGGGTG,-0.28 kcal/mol
15,GATTGCACGTGGAGGC,0.2 kcal/mol
16,ACTTTCACGTGTATTA,0.2 kcal/mol
17,TTGTCCACGTGGGCAT,-0.08 kcal/mol
18,TAGGTCACGTGATTGA,0.19 kcal/mol
19,TTGTCCACGTGTGAGT,0.18 kcal/mol
20,TCTGGCACGTGTCAGT,-0.02 kcal/mol
21,TTTTGCACGTGGGAGG,-0.01 kcal/mol
22,ATTGGCACGTGTTCGC,-0.07 kcal/mol
23,ATTAGCACGTGTTGGC,-0.17 kcal/mol
24,TGATTCACGTGTGGGG,0.38 kcal/mol
25,TTAAACACGTGGTAAG,-0.01 kcal/mol
26,AGTTGCACGTGGGTTT,-0.11 kcal/mol

row,Sequence,relative binding free energy
1,CATTTCACGTGGGAAT,0.25 kcal/mol
2,TAGGACACGTGTGGTT,0.1 kcal/mol
3,GACGTCACGTGTGGGG,0.21 kcal/mol
4,GGTTGCACGTGCTTGA,-0.03 kcal/mol
5,ATACACACGTGTTTGG,-0.09 kcal/mol
6,GCCGTCACGTGTTAGT,0.36 kcal/mol
7,GTTGTCACGTGACATT,0.28 kcal/mol
8,AGATACACGTGGGATT,-0.07 kcal/mol
9,AATGTCACGTGAGTGC,0.24 kcal/mol
10,GACTGCACGTGTTAGT,0.06 kcal/mol
11,TAGCGCACGTGGATTT,-0.06 kcal/mol
12,GTGTGCACGTGTATAA,0.05 kcal/mol
13,GAGGTCACGTGGAGGA,0.18 kcal/mol
14,GGTCGCACGTGGGGAC,0.06 kcal/mol
15,CAGTGCACGTGAGGTA,-0.01 kcal/mol
16,GATTGCACGTGAGCGT,0.18 kcal/mol
17,GGCAGCACGTGTTTTT,0.16 kcal/mol
18,GATATCACGTGCGGTT,0.21 kcal/mol
19,AATGACACGTGGGAGT,-0.14 kcal/mol
20,AGTGGCACGTGTGATT,0.07 kcal/mol
21,GCTAGCACGTGGAGTG,-0.06 kcal/mol
22,TGCAGCACGTGTGTAA,0.02 kcal/mol

# Source: the BET-seq Pho4 binding data (Le et al. 2018)
